± gives the standard deviation of the averaged measurements. Some of the results follow.
system: PfAP2-LT AP2 domain (GST-tagged); experiment: gcPBM binding intensity (ln(normalized median fluorescence intensity)); higher = stronger DNA binding
How it was run: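 Binding intensity is the highest Masliner-normalised natural-log median intensity over replicate spots in either probe orientation. To obtain it, GST-tagged P. falciparum DNA-binding domains made in E. coli were incubated for 1 h on an Agilent 4 × 180k array of primer-extended double-stranded 36-bp intergenic genomic probes plus negative controls. Detection used Alexa488 anti-GST antibody with scanning at 488 nm.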

Sequence | gcPBM binding intensity (ln)
AGCGTATTATACTGACGTACATTTTATGTAACTCCA [XGTACX_site2715] | 8.79 ± 0.3
AAAAAAAAAAAAAAAACACACACAAATTTAATATAT [CACACA_site8492] | 9.12 ± 0.4
TACACCAAAAAAAAACGTACAAAATCCCACCCAGAC [XGTACX_site4622] | 9.81 ± 0.28
AAAATTAAAGTAAGGACACACATATATAATACATAT [CACACA_site823] | 9.2 ± 0.44
TATATATATAACAACACACACAGATCATAAAACTGC [CACACA_site2161] | 9.51 ± 0.23
AAAAAAAAAAAAAACACACACAAATTTAATATATAT [CACACA_site1695] | 9.29 ± 0.54
TATATTTATTTTAACACACACATATATATATTATAT [CACACA_site4729] | 9.12 ± 0.42
TCCCAAGGAGTAGGCACACATAAAATATTATACATA [CACACA_site717] | 8.86 ± 0.64
AAAAATATATATTCAGTGCATATAACAAAAATTATA [GTGCAC_site9794] | 8.71 ± 0.48
CATAATAATAGAAACACACACACATAGACATATATA [CACACA_site1308] | 9.93 ± 0.2
ATTAAATAAAAAAACACACACATATATACATATATA [CACACA_site3445] | 9.29 ± 0.23
CATATATAACCTATAGCACACATATATAATATATAT [CACACA_site8544] | 9.07 ± 0.36
TAAAATATAGAAAATTTTATTAAATATAAAAAAATA [CACACA_negctrl_site1441] | 8.28 ± 0.47
GCATATCTATTTTCACGTACACAAACATGTATATAT [XGTACX_site3722] | 8.97 ± 0.4
ATATTACATATGTGCTGTACGCAATATATTATATCT [XGTACX_site1520] | 9.03 ± 0.38
AAGAACTTTAATAAGTGTACATTTATTGGAAACATG [XGTACX_site2995] | 8.6 ± 0.51
TTATATAAACACCAACGTACGTTCATTTAACATAAC [XGTACX_site5250] | 8.93 ± 0.52
TATATATATATATATTGTACATATGTGGTATAAATG [XGTACX_site6108] | 9.31 ± 0.2
TTTCTCTTCTAAACATGTACAAAAATACATACATAT [XGTACX_site1365] | 8.73 ± 0.56
AAAAATTAAAATATTATAGTTGAAACTTTTATAAAT [TGCATGCA_negctrl_site454] | 8.25 ± 0.47
TATATTTATTCCTGTTGTACTTTATATTATTTTTTT [XGTACX_site1415] | 8.9 ± 0.47
TCCCATTTATTATGGTGTACAATTAATTAAACATAA [XGTACX_site750] | 8.4 ± 0.35

Sequence | gcPBM binding intensity (ln)
ATATATATATATATATGTACATACATACATAGAACT [XGTACX_site2214] | 9.68 ± 0.42
TATAATATTAATGACTGTACTCATACGTATATTTAT [XGTACX_site5493] | 8.98 ± 0.37
AATTTTGTTTAGCACACACACATACATACATACATA [CACACA_site5707] | 9.69 ± 0.28
TTTAATTTATATTTTGTGCACATCTTATTATATATA [GTGCAC_site9630] | 9.04 ± 0.49
CCCATTTTGACAAAAAGTACAAGTTCAGGTTTTATA [XGTACX_site1532] | 8.51 ± 0.42
TATATTATTTTATATTGTACATACCAAATATTATAT [XGTACX_site1693] | 8.68 ± 0.41
CATGTGATAATGATTAGTACATAAACAAAAATATAT [XGTACX_site5866] | 8.93 ± 0.53
AGAAAAATAAACAAATGTACAAATTATTACTATATA [XGTACX_site1087] | 8.81 ± 0.45
ACATATTAATTATTATGACATACATATCAGTTATTA [TGCATGCA_negctrl_site126] | 8.7 ± 0.4
TATTCCTATAAAAAAACACACACATATAAATATATA [CACACA_site8727] | 9.12 ± 0.3
AAATATATTTCACGCACACACACCCCAAATAAATTT [CACACA_site3820] | 9.81 ± 0.11
ATATTTCAAAATGAAAGTACATATAAAAATTATACA [XGTACX_site3787] | 8.6 ± 0.46
AAATAGATAAGTAGGACACACATATATATATATTAA [CACACA_site1862] | 9.13 ± 0.49
AAGTATTTTTTTACATGTACATATATATATATATAT [XGTACX_site5065] | 9.12 ± 0.46
TATAAAAAATTCTTCCTTATTTTATGATATATATAT [TGCATGCA_negctrl_site57] | 8.38 ± 0.42
ATTTGCAGTATTTCGGAACACACAAACATAAATATG [CACACA_site8726] | 8.82 ± 0.45
TTTAATTATTAGTGTGCACACAACTATGAGTTTTTA [CACACA_site8997] | 9.07 ± 0.33
AATTACATTCAATTCTGTACTAATAGTAATTCAAAA [XGTACX_site7419] | 8.47 ± 0.39
CAAAAACATACCTACACACACAATATGTATTTATAA [CACACA_site5862] | 9.37 ± 0.23
AAATGAATATTCATAGTGCAATATATAAATGAAAAT | 9.03 ± 0.49
CATTTTTTTTTATAAATACACACGTACGGGTGCATA [CACACA_site1569] | 8.84 ± 0.4
GAACATTTACGCCCCACACACCTACCAACAAAAAAA [CACACA_site7746] | 9.52 ± 0.47

Sequence | gcPBM binding intensity (ln)
TTCTTAAAAAAAAATAAAATAAAAAAAAAAATAAAA [CACACA_negctrl_site99] | 8.14 ± 0.48
TTCTGGCAAAATAACACACACATATATTTTATATAC [CACACA_site3242] | 9.43 ± 0.33
ATAATTACATAGATTGGTACACATTTTTGATTGTAT [XGTACX_site3802] | 9.03 ± 0.38
TTAAAAATGTGTGTGCGTACATAATATTTCGAAAAA [XGTACX_site8197] | 9.26 ± 0.4
GTACAAATGATTAATCCTTTACTTATATATATATAT [XGTACX_negctrl_site138] | 8.96 ± 0.4
TCATTTTATTATTCTACACACTTATCTATAATTATA [CACACA_site34] | 8.94 ± 0.42
TTTTTCATATGACACACACACAAAAATAATGTGGAA [CACACA_site7692] | 9.26 ± 0.43
AAATGAACACGAAAGGAAAAAAAAATATATATATAT [CACACA_negctrl_site267] | 9.29 ± 0.42
AACACTTCATACACGTGTACAAATATAATATAGACA [XGTACX_site5671] | 9.2 ± 0.59
AAAATATTCACGTGTACATATATATATATATATTAT [TGCATGCA_negctrl_site192] | 9.16 ± 0.31
GGAAATAATATTATTACACACCAAAATGTATAAAAA [CACACA_site4036] | 8.95 ± 0.45
ATATTAAAATTAAACGCATGCATATATTATAAAAGA [TGCATGCA_site231] | 8.96 ± 0.38
CTAATTAATGGGTACATACACACATATATACATACA [CACACA_site743] | 9.1 ± 0.43
TTTTTATCAAATAAATGTACACATATTAAATGAAAT [XGTACX_site555] | 8.52 ± 0.4
TTCTGTATAACACAAATTTTTTTTTATTCACTCTGT [TGCATGCA_negctrl_site410] | 8.72 ± 0.57
AATAATATAACAGAACAAAACTAAATATACACATAT [TGCATGCA_negctrl_site31] | 9.02 ± 0.39
TATTTCATAATAAATTGTACGCGTAGAAAACCATGA [XGTACX_site7506] | 9.25 ± 0.44
AAAAAAAAAAAAAACACACACACACGCATACAAAAT [CACACA_site6794] | 10.2 ± 0.13
TTATATCTTATAAAATGTACATAAAATATATAATAT [XGTACX_site7647] | 8.51 ± 0.38
ATTAATTATATAATATGTACATATTACAAATATATA [XGTACX_site1478] | 8.62 ± 0.42
ATATTTTTCTTAAGTACACACTAAATAGAAACTAAA [CACACA_site4191] | 8.53 ± 0.48
TTAATGTTATATGTGTGTACATATAAGTTTAGTAAA [XGTACX_site4651] | 8.94 ± 0.34

Sequence | gcPBM binding intensity (ln)
TATGTATATTTTAATTGTACGTGTATGGTTGTAAAT [XGTACX_site8738] | 8.81 ± 0.39
GAGAAAAATAAATACACACACATAAATAAATACATA [CACACA_site5102] | 9.74 ± 0.42
CACTAATAGTGGATTACACACATATATCTGTATTTA [CACACA_site5403] | 8.98 ± 0.35
TTTTTTTTTTCATTAACACACATAAATATATATATA [CACACA_site5759] | 8.56 ± 0.53
TGATTAATAATTTTCTTCATACATTAAACATCTTTT [TGCATGCA_negctrl_site342] | 8.33 ± 0.52
TTTGTAAGAAATAAATGTACAAAAATTAATTTTTAT [XGTACX_site8983] | 8.39 ± 0.42
TTTTTTTTTTTTTTCTGTACAAATTAAATCTACATA [XGTACX_site8285] | 8.43 ± 0.25
GACATAAAATTCAAAGTGCATAAATAAAATAAACCC | 9.13 ± 0.38
TATTTTAATGAATTCACACATATAATTTATTTTATA [CACACA_site4538] | 8.52 ± 0.52
GAAATTAAATGACATACACACTATATTATAGATTTT [CACACA_site7468] | 8.82 ± 0.4
ATATTTAAAAAATGATGTACAAAAATGTAGTCACAC [XGTACX_site6208] | 8.8 ± 0.36
ATATAAAACTAATTTCTTTTTCTCCTTTTATTTTGT [CACACA_negctrl_site1251] | 8.59 ± 0.49
ATAGTATCTGGTAGCTGTACGAGTCGTAGAGTGTAA [XGTACX_site4936] | 9.04 ± 0.43
TACTAAAAAATATAAACACACATATATTTTACATAT [CACACA_site2042] | 8.88 ± 0.57
TTTAATTTGATAGACACATGCACACGTGCAATACTT [TGCATGCA_site777] | 8.91 ± 0.25
ATATATATATATAAATGTACAGATATATTTTTTATT [XGTACX_site5445] | 9.02 ± 0.27
AAAATACATAGACACACACACACACGGATATAAATA [CACACA_site7643] | 10.2 ± 0.2
AATATATATTAATAAAGTACAGGAAATATTTTTACC [XGTACX_site7052] | 8.78 ± 0.29
AAAAATTCTTCCCAAGCATGCGCGCGTAAAATATTT [TGCATGCA_site77] | 8.75 ± 0.34
AAATTTTTTATTAGTAGTACGCATAAATATATGTAT [XGTACX_site1934] | 8.61 ± 0.32
AAAAAAATAAGACACACACACAAAAAAATAAAAATA [CACACA_site6357] | 9.73 ± 0.36
AAAAAAAAAAGAAAAGGTACACAGAATATATATATA [XGTACX_site6914] | 9.04 ± 0.34

— the supplement of paper PMC11417369
